{"source": "the supplement of paper PMC11417369", "note": "± gives the standard deviation of the averaged measurements. The list shows a part of the results.", "data": [{"system": "PfAP2-EXP AP2 domain (GST-tagged)", "experiment": "gcPBM binding intensity (ln(normalized median fluorescence intensity)); higher = stronger DNA binding", "method_in_brief": "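Binding intensity is defined as the maximum Masliner-normalised natural-log median intensity across replicate spots for either probe orientation. It was measured on an Agilent 4 × 180k array of primer-extended double-stranded 36-bp intergenic genomic probes and negative controls, to which GST-tagged P. falciparum DNA-binding domains made in E. coli were applied for 1 h in 1× PBS with 1% milk, 0.2 mg/ml BSA, 0.5% salmon testes DNA and 0.03% Triton X-100. Detection was by Alexa488 anti-GST antibody and scanning at 488 nm.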", "values": [{"sequence": "AAATGTTAAAATGACAGTACATATATAAAAAAAAAA [XGTACX_site3936]", "gcPBM binding intensity (ln)": "8.65 ± 0.38"}, {"sequence": "TTTTATTTTTTCCGACGTACATCCATTATATATAAT [XGTACX_site4469]", "gcPBM binding intensity (ln)": "9.1 ± 0.54"}, {"sequence": "CTAGGAAATTATATGGGTACTCATATTCATAAAAAA [XGTACX_site1846]", "gcPBM binding intensity (ln)": "8.45 ± 0.42"}, {"sequence": "AAATATTTGGAGAAATGTACATATTATAAATATATT [XGTACX_site6885]", "gcPBM binding intensity (ln)": "8.72 ± 0.4"}, {"sequence": "TAAAAAAAAGGAAATACATGCATCTACATATATATA [TGCATGCA_site500]", "gcPBM binding intensity (ln)": "8.7 ± 0.14"}, {"sequence": "AAAAACTAACTGTATTGTACTCTCTTATAAATTCAC [XGTACX_site8967]", "gcPBM binding intensity (ln)": "8.41 ± 0.33"}, {"sequence": "ATATATTTCATTTTTGTACACACAACGTTGGAGGGT [CACACA_site8999]", "gcPBM binding intensity (ln)": "8.84 ± 0.39"}, {"sequence": "AAAAAAAAAATATATATATATATATAATATATATAT [TGCATGCA_negctrl_site329]", "gcPBM binding intensity (ln)": "9.2 ± 0.11"}, {"sequence": "ATATAGGTAATAATAATACACACGGTGAAATATAGA [CACACA_site4040]", "gcPBM binding intensity (ln)": "8.85 ± 0.32"}, {"sequence": "TATTGTAAAGTGTCATTATTACGTTATATTATATAT [CACACA_negctrl_site98]", "gcPBM binding intensity (ln)": "8.42 ± 0.37"}, {"sequence": "GACAATATTAAAACATGTACATGCATTTTATGAATA [XGTACX_site553]", "gcPBM binding intensity (ln)": "8.96 ± 0.29"}, {"sequence": "TATAATATAAAATATGCACACATTGGAATGGGAGAA [CACACA_site3746]", "gcPBM binding intensity (ln)": "8.97 ± 0.35"}, {"sequence": "AAAAAATTTATAAAAGCACACAAAATAAAAAAAAAT [CACACA_site8420]", "gcPBM binding intensity (ln)": "8.69 ± 0.48"}, {"sequence": "TATAAAGACACGTACACACACTAAGTATATCCAATA [CACACA_site6855]", "gcPBM binding intensity (ln)": "8.54 ± 0.42"}, {"sequence": "ATATAAGTATACACATGTACATATTTCTTATGTATA [XGTACX_site2854]", "gcPBM binding intensity (ln)": "8.68 ± 0.41"}, {"sequence": "GTATGATGTGAACATTGTACGAATGAATATATCTAA [XGTACX_site3789]", "gcPBM binding intensity (ln)": "8.39 ± 0.36"}, {"sequence": "AAAATGTTAAATATTAAATATGAAACAAAAAAAAAA [GTGCAC_negctrl_site211]", "gcPBM binding intensity (ln)": "8.42 ± 0.55"}, {"sequence": "TCCAAATGAAAAAATTGTACATATTTTATCATATAT [XGTACX_site6159]", "gcPBM binding intensity (ln)": "8.39 ± 0.34"}, {"sequence": "TAAATACATTTATATACACACCTATATATATATATA [CACACA_site5137]", "gcPBM binding intensity (ln)": "10 ± 0.54"}, {"sequence": "TATAATTTAAAATACACACACATATATATAATATAT [CACACA_site2000]", "gcPBM binding intensity (ln)": "8.61 ± 0.67"}, {"sequence": "ATAAGAAATTTCATACGTACATAAATAAATATATAT [XGTACX_site2932]", "gcPBM binding intensity (ln)": "8.68 ± 0.2"}, {"sequence": "AAAATTTATTATCTATATAATAATATGAAACAAAAC [GTGCAC_negctrl_site731]", "gcPBM binding intensity (ln)": "8.8 ± 0.39"}, {"sequence": "TTTCATTTTTGAAGGTGTACTTAAAATTTATGTAAT [XGTACX_site6671]", "gcPBM binding intensity (ln)": "8.37 ± 0.28"}, {"sequence": "CTCATTTTGTTAATGGTGCAAAAAAAAAAAAAAAAA", "gcPBM binding intensity (ln)": "8.49 ± 0.22"}, {"sequence": "ATGAAAAAAAGACATGCATGTAAATATAAATTGCTT [TGCATGCA_site504]", "gcPBM binding intensity (ln)": "9.47 ± 0.28"}, {"sequence": "TATTTAAAACTATACACATGCATTATATAAAGATAT [TGCATGCA_site702]", "gcPBM binding intensity (ln)": "8.79 ± 0.4"}, {"sequence": "AGTAAGAGGCATTAAGCATGCATATTATTATAAGCA [TGCATGCA_site237]", "gcPBM binding intensity (ln)": "9.1 ± 0.23"}, {"sequence": "CATTATAAGAGACACACACACATATATAAATATGTA [CACACA_site6621]", "gcPBM binding intensity (ln)": "8.47 ± 0.34"}, {"sequence": "TTATAAAATATATATACATGCACAAAATTATAAGTA [TGCATGCA_site294]", "gcPBM binding intensity (ln)": "9.11 ± 0.3"}, {"sequence": "AATCAACATTTTTTTTGCTATTTTTTTTTTTAATTA [CACACA_negctrl_site891]", "gcPBM binding intensity (ln)": "8.32 ± 0.52"}, {"sequence": "AAAAAAACATAAAATACACACAACCTTAAGAATGTA [CACACA_site3293]", "gcPBM binding intensity (ln)": "8.57 ± 0.38"}, {"sequence": "TATACACTTGTAATAACACACATTATTTTTTTTTTT [CACACA_site1324]", "gcPBM binding intensity (ln)": "8.41 ± 0.41"}, {"sequence": "ATAAAAAATTTAAGTATTTTTTACAAACCTATAAAT [GTGCAC_negctrl_site51]", "gcPBM binding intensity (ln)": "8.18 ± 0.38"}, {"sequence": "TTATATTTATATGTAATACAAAATAACAAAAAATTT [CACACA_negctrl_site1721]", "gcPBM binding intensity (ln)": "8.29 ± 0.46"}, {"sequence": "TATATATATATATCCACACACATACATATATTAATA [CACACA_site69]", "gcPBM binding intensity (ln)": "10.2 ± 0.26"}, {"sequence": "TTGGTAATTTTAAAATGTACTTATTATATATATATA [XGTACX_site5642]", "gcPBM binding intensity (ln)": "9.79 ± 0.61"}, {"sequence": "ATTTTTTTTTGTTTAATGTTATGTGGTCATTAAATT [CACACA_negctrl_site1177]", "gcPBM binding intensity (ln)": "8.63 ± 0.49"}, {"sequence": "TATTTATTCACTTATTGTACTTATATATATAATAAA [XGTACX_site6147]", "gcPBM binding intensity (ln)": "8.61 ± 0.51"}, {"sequence": "AAATTAAAAGAAAATACACACCTGTGGGTGCTTATA [CACACA_site5143]", "gcPBM binding intensity (ln)": "8.44 ± 0.13"}, {"sequence": "TTTTGTTGTTGTTGTTGTACATAAATAATAAAATAT [XGTACX_site8681]", "gcPBM binding intensity (ln)": "8.59 ± 0.26"}, {"sequence": "ATATATTTTTTTTAGCGTACATGCAAAAAAAAAAAA [XGTACX_site4590]", "gcPBM binding intensity (ln)": "8.74 ± 0.32"}, {"sequence": "TCATAAATTAAACACACACACACATCTGGATACCCC [CACACA_site9096]", "gcPBM binding intensity (ln)": "9.2 ± 0.53"}, {"sequence": "AATTAACCGAAACACACACACATATATATATATATA [CACACA_site3963]", "gcPBM binding intensity (ln)": "10 ± 0.39"}, {"sequence": "TATACACACAGACATGCATGCACATATATATATACA [TGCATGCA_site30]", "gcPBM binding intensity (ln)": "9.94 ± 0.22"}]}]}
